# Results as given in publication PMC9911399, “Two distinct binding modes provide the RNA-binding protein RbFox with extraordinary sequence specificity”.
# Positions count from the first letter of the chain named. The list shows a part of the results.
# B1: UCGUUGA (DNA:RNA)
# RNA: GGGAGACCGGAAUUCAGAUUGUCCUCGUUGAUUAAAUCCCGUCGUAGCCACCA
# DNA 1: CAATCTGAATTCCGGTCTCCC
# DNA 2: TGGTGGCTACGACGGGATT
# B2: CUUACCG (DNA:RNA)
# RNA: GGGAGACCGGAAUUCAGAUUGUCCCUUACCGUUAAAUCCCGUCGUAGCCACCA
# DNA 1: CAATCTGAATTCCGGTCTCCC
# DNA 2: TGGTGGCTACGACGGGATT
# B3: AGCGGUC (DNA:RNA)
# RNA: GGGAGACCGGAAUUCAGAUUGUCCAGCGGUCUUAAAUCCCGUCGUAGCCACCA
# DNA 1: CAATCTGAATTCCGGTCTCCC
# DNA 2: TGGTGGCTACGACGGGATT
# B4: UAAUAUA (DNA:RNA)
# RNA: B1 RNA with C26A, G27A, U29A, G30U
# DNA 1: CAATCTGAATTCCGGTCTCCC
# DNA 2: TGGTGGCTACGACGGGATT
# B5: UGGCCGC (DNA:RNA)
# RNA: B1 RNA with C26G, U28C, U29C, A31C
# DNA 1: CAATCTGAATTCCGGTCTCCC
# DNA 2: TGGTGGCTACGACGGGATT
# B6: AGCCAGU (DNA:RNA)
# RNA: B3 RNA with G28C, G29A, U30G, C31U
# DNA 1: CAATCTGAATTCCGGTCTCCC
# DNA 2: TGGTGGCTACGACGGGATT
# B7: GGAAUCG (DNA:RNA)
# RNA: B2 RNA with C25G, U26G, U27A, C29U
# DNA 1: CAATCTGAATTCCGGTCTCCC
# DNA 2: TGGTGGCTACGACGGGATT
# B8: GUCUCGC (DNA:RNA)
# RNA: B3 RNA with A25G, G26U, G28U, G29C, U30G
# DNA 1: CAATCTGAATTCCGGTCTCCC
# DNA 2: TGGTGGCTACGACGGGATT
# B9: AGAAGAG (DNA:RNA)
# RNA: B3 RNA with C27A, G28A, U30A, C31G
# DNA 1: CAATCTGAATTCCGGTCTCCC
# DNA 2: TGGTGGCTACGACGGGATT
# B10: AACCUGA (DNA:RNA)
# RNA: B1 RNA with U25A, C26A, G27C, U28C
# DNA 1: CAATCTGAATTCCGGTCTCCC
# DNA 2: TGGTGGCTACGACGGGATT
# B11: GGGAGGG (DNA:RNA)
# RNA: B3 RNA with A25G, C27G, G28A, U30G, C31G
# DNA 1: CAATCTGAATTCCGGTCTCCC
# DNA 2: TGGTGGCTACGACGGGATT
# B12: CGGAAAA (DNA:RNA)
# RNA: B2 RNA with U26G, U27G, C29A, C30A, G31A
# DNA 1: CAATCTGAATTCCGGTCTCCC
# DNA 2: TGGTGGCTACGACGGGATT
# B13: ACCUCUA (DNA:RNA)
# RNA: B3 RNA with G26C, G28U, G29C, C31A
# DNA 1: CAATCTGAATTCCGGTCTCCC
# DNA 2: TGGTGGCTACGACGGGATT
# B14: AGGCUAC (DNA:RNA)
# RNA: B3 RNA with C27G, G28C, G29U, U30A
# DNA 1: CAATCTGAATTCCGGTCTCCC
# DNA 2: TGGTGGCTACGACGGGATT
# B15: UCACACU (DNA:RNA)
# RNA: B1 RNA with G27A, U28C, U29A, G30C, A31U
# DNA 1: CAATCTGAATTCCGGTCTCCC
# DNA 2: TGGTGGCTACGACGGGATT
# B16: CUGCGUC (DNA:RNA)
# RNA: B3 RNA with A25C, G26U, C27G, G28C
# DNA 1: CAATCTGAATTCCGGTCTCCC
# DNA 2: TGGTGGCTACGACGGGATT
# B17: GUUCAGG (DNA:RNA)
# RNA: B2 RNA with C25G, A28C, C29A, C30G
# DNA 1: CAATCTGAATTCCGGTCTCCC
# DNA 2: TGGTGGCTACGACGGGATT
# B18: GAAAAAA (DNA:RNA)
# RNA: B2 RNA with C25G, U26A, U27A, C29A, C30A, G31A
# DNA 1: CAATCTGAATTCCGGTCTCCC
# DNA 2: TGGTGGCTACGACGGGATT
# B19: CAACGGC (DNA:RNA)
# RNA: B3 RNA with A25C, G26A, C27A, G28C, U30G
# DNA 1: CAATCTGAATTCCGGTCTCCC
# DNA 2: TGGTGGCTACGACGGGATT
# B20: GCUGAUA (DNA:RNA)
# RNA: B3 RNA with A25G, G26C, C27U, G29A, C31A
# DNA 1: CAATCTGAATTCCGGTCTCCC
# DNA 2: TGGTGGCTACGACGGGATT
# B21: GUCCCUC (DNA:RNA)
# RNA: B3 RNA with A25G, G26U, G28C, G29C
# DNA 1: CAATCTGAATTCCGGTCTCCC
# DNA 2: TGGTGGCTACGACGGGATT
# B22: UUGGAAG (DNA:RNA)
# RNA: B2 RNA with C25U, U27G, A28G, C29A, C30A
# DNA 1: CAATCTGAATTCCGGTCTCCC
# DNA 2: TGGTGGCTACGACGGGATT
# B23: CUACCUA (DNA:RNA)
# RNA: B2 RNA with U27A, A28C, C30U, G31A
# DNA 1: CAATCTGAATTCCGGTCTCCC
# DNA 2: TGGTGGCTACGACGGGATT
# B24: GUACUAC (DNA:RNA)
# RNA: B3 RNA with A25G, G26U, C27A, G28C, G29U, U30A
# DNA 1: CAATCTGAATTCCGGTCTCCC
# DNA 2: TGGTGGCTACGACGGGATT
# B25: GGAAAGU (DNA:RNA)
# RNA: B3 RNA with A25G, C27A, G28A, G29A, U30G, C31U
# DNA 1: CAATCTGAATTCCGGTCTCCC
# DNA 2: TGGTGGCTACGACGGGATT
# B26: UACUCUG (DNA:RNA)
# RNA: B3 RNA with A25U, G26A, G28U, G29C, C31G
# DNA 1: CAATCTGAATTCCGGTCTCCC
# DNA 2: TGGTGGCTACGACGGGATT
# B27: ACGCCGG (DNA:RNA)
# RNA: B1 RNA with U25A, U28C, U29C, A31G
# DNA 1: CAATCTGAATTCCGGTCTCCC
# DNA 2: TGGTGGCTACGACGGGATT
# B28: UUGUGGC (DNA:RNA)
# RNA: B1 RNA with C26U, U29G, A31C
# DNA 1: CAATCTGAATTCCGGTCTCCC
# DNA 2: TGGTGGCTACGACGGGATT
# B29: ACUGUGA (DNA:RNA)
# RNA: B1 RNA with U25A, G27U, U28G
# DNA 1: CAATCTGAATTCCGGTCTCCC
# DNA 2: TGGTGGCTACGACGGGATT
# B30: GGCGACG (DNA:RNA)
# RNA: B3 RNA with A25G, G29A, U30C, C31G
# DNA 1: CAATCTGAATTCCGGTCTCCC
# DNA 2: TGGTGGCTACGACGGGATT
# B31: GAGGUCC (DNA:RNA)
# RNA: B3 RNA with A25G, G26A, C27G, G29U, U30C
# DNA 1: CAATCTGAATTCCGGTCTCCC
# DNA 2: TGGTGGCTACGACGGGATT
# Target: T1, RBFOX1 RRM RbFoxmut (Fox-RRM*) (Homo sapiens, UniProt Q9NWB1 109-208, R118D;E147R;N151S;E152T)
# T1 sequence: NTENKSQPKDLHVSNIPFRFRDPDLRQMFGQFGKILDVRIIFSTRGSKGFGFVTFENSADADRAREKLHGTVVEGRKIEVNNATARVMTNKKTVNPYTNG
# Assay: EMSA; HiTS-Eq, 1 nM pool, 10 min; buffer printed only for the single-RNA assays: 10 mM Tris pH 7.5, 150 mM NaCl, 3.4 mM EDTA, 0.001% NP-40, 30 C
# Conditions: tags: His6 N-terminal (pET28a); label: 5' 32P
# Procedure, shortened: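 Purified wild-type or mutant RbFox RRM at increasing concentrations was equilibrated with 1 nM of 5′-radiolabelled RNA carrying 7 randomized nucleotides for 10 min in 50 µL. Unbound RNA was separated by 8% native PAGE and sequenced. Relative association constants came from read-count changes of each RNA species compared with the control reaction, normalised to the cognate motif.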
row,Binder,binding signal
1,B1,0.107 KA relative to UGCAUGU
2,B2,0.094 KA relative to UGCAUGU
3,B3,0.154 KA relative to UGCAUGU
4,B4,0.081 KA relative to UGCAUGU
5,B5,0.129 KA relative to UGCAUGU
6,B6,0.0972 KA relative to UGCAUGU
7,B7,0.387 KA relative to UGCAUGU
8,B8,0.169 KA relative to UGCAUGU
9,B9,0.135 KA relative to UGCAUGU
10,B10,0.0413 KA relative to UGCAUGU
11,B11,0.0607 KA relative to UGCAUGU
12,B12,0.0639 KA relative to UGCAUGU
13,B13,0.091 KA relative to UGCAUGU
14,B14,0.104 KA relative to UGCAUGU
15,B15,0.0628 KA relative to UGCAUGU
16,B16,0.192 KA relative to UGCAUGU

row,Binder,binding signal
1,B17,0.0776 KA relative to UGCAUGU
2,B18,0.0608 KA relative to UGCAUGU
3,B19,0.0505 KA relative to UGCAUGU
4,B20,0.105 KA relative to UGCAUGU
5,B21,0.076 KA relative to UGCAUGU
6,B22,0.141 KA relative to UGCAUGU
7,B23,0.116 KA relative to UGCAUGU
8,B24,0.0877 KA relative to UGCAUGU
9,B25,0.0964 KA relative to UGCAUGU
10,B26,0.0643 KA relative to UGCAUGU
11,B27,0.0933 KA relative to UGCAUGU
12,B28,0.11 KA relative to UGCAUGU
13,B29,0.0816 KA relative to UGCAUGU
14,B30,0.0951 KA relative to UGCAUGU
15,B31,0.0681 KA relative to UGCAUGU
